Three compounds from patent US20120071493A1, “SUBSTITUTED 8-SULFONYL-2,3,4,5-TETRAHYDRO-1H-GAMMA-CARBOLINES, LIGANDS AND PHARMACEUTICAL COMPOSITION; METHOD FOR THE PRODUCTION AND USE OF SAME” (priority 2009, published 2012) can be followed below.

This assay has as its system Mice of SHK line.
Where [1] appears, read: 1 mg/kg subcutaneously 60 minutes before the test.

Read-outs that look alike come from different tables or passages of the source.

For `CN1CCc2c(c3cc(S(=O)(=O)c4ccccc4)ccc3n2C)C1.Cl` [1.1.1(4)•HCl, 2,5-dimethyl-8-(phenylsulfonyl)-2,3,4,5-tetrahydro-1H-γ-carboline hydrochloride], the “effect on disturbance of prepulse inhibition of startle caused by Apomorphine” value under setting [1] is “prevented disturbance of prepulse inhibition of startle”.

Consider `CN1CCc2[nH]c3ccc(S(=O)(=O)Nc4cccc(F)c4)cc3c2C1.Cl` [1.2.1(3)•HCl, 2-methyl-2,3,4,5-tetrahydro-1H-γ-carboline-8-sulfonic acid 3-fluorophenyl amide hydrochloride], for which the “effect on disturbance of prepulse inhibition of startle caused by Apomorphine” value under setting [1] was “prevented disturbance of prepulse inhibition of startle”.

`O=C(CCCN1CCC(O)(c2ccc(Cl)cc2)CC1)c1ccc(F)cc1` [Haloperidol, reference compound]: the “effect on disturbance of prepulse inhibition of startle caused by Apomorphine” value (1 mg/kg intraperitoneally 60 minutes before the test) was “prevented disturbance of prepulse inhibition of startle”.
